Laboratory results from patent US20150246136A1 (Bayer, published 2015).
Values belong to the binder of their own block, whether it stands above or below them.

Molecular target: T1, C4.4a (Homo sapiens, UniProt O95274 31-326)
T1 sequence (looked up): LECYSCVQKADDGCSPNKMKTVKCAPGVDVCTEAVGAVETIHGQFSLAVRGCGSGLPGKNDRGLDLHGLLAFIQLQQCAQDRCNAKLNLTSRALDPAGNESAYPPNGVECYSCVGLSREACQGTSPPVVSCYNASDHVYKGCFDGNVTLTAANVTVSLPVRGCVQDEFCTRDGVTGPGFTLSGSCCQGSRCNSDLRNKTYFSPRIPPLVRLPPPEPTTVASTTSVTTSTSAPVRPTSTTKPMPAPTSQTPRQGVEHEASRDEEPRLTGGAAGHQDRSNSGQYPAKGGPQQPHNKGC
Assay: cell-based or functional assay

B1: Example 246 (antibody, human IgG1, lambda)
heavy: EVQLLESGGGLVQPGGSLRLSCAASGFTFSNAWMSWVRQAPGKGLEWVSYISSSGSTIYYADSVKGRFTISRDNSKNTLYLQMNSLRAEDTAVYYCAREGLWAFDYWGQGTLVTVSS[in this place human IgG1 constant region]
light: ESVLTQPPSVSGAPGQRVTISCTGSSSNIGAGYVVHWYQQLPGTAPKLLIYDNNKRPSGVPDRFSGSKSGTSASLAISGLRSEDEADYYCAAWDDRLNGPVFGGGTKLTVLGQPKAAPSVTLFPPSSEELQANKATLVCLISDFYPGAVTVAWKADSSPVKAGVETTTPSKQSNNKYAASSYLSLTPEQWKSHRSYSCQVTHEGSTVEKTVAPTECS
modifications: linker-toxophore on cysteine S
IC50 (nM) A549: C4.4a: 0.13 nM

B5: Example 247 (antibody, human IgG1, lambda)
heavy: B1 heavy
light: B1 light
modifications: linker-toxophore on cysteine S
IC50 (nM) A549: C4.4a: 0.14 nM

B10: Example 256 (antibody, human IgG1, lambda)
heavy: B1 heavy
light: B1 light
modifications: linker-toxophore on cysteine S
IC50 (nM) A549: C4.4a: 0.035 nM

B12: Example 255 (antibody, human IgG1, lambda)
heavy: B1 heavy
light: B1 light
modifications: linker-toxophore on cysteine S
IC50 (nM) A549: C4.4a: 0.04 nM

B13: Example 248 (antibody, human IgG1, lambda)
heavy: B1 heavy
light: B1 light
modifications: linker-toxophore on lysine NH
IC50 (nM) A549: C4.4a: 0.17 nM

B14: Example 254 (antibody, human IgG1, lambda)
heavy: B1 heavy
light: B1 light
modifications: linker-toxophore on cysteine S
IC50 (nM) A549: C4.4a: 0.29 nM

B16: Example 253 (antibody, human IgG1, lambda)
heavy: B1 heavy
light: B1 light
modifications: linker-toxophore on lysine NH
IC50 (nM) A549: C4.4a: 0.15 nM

Continued, values first:

IC50 (nM) A549: C4.4a: 0.018 nM
B2: Example 258 (antibody, human IgG1, lambda)
heavy: B1 heavy
light: B1 light
modifications: linker-toxophore on lysine NH

IC50 (nM) A549: C4.4a: 3 nM
B3: Example 266 (antibody, human IgG1, lambda)
heavy: B1 heavy
light: B1 light
modifications: linker-toxophore on lysine NH

IC50 (nM) A549: C4.4a: 0.06 nM
B4: Example 260 (antibody, human IgG1, lambda)
heavy: B1 heavy
light: B1 light
modifications: linker-toxophore on cysteine S

IC50 (nM) A549: C4.4a: 0.1 nM
B6: Example 264 (antibody, human IgG1, lambda)
heavy: B1 heavy
light: B1 light
modifications: linker-toxophore on lysine NH

IC50 (nM) A549: C4.4a: 0.2 nM
B7: Example 265 (antibody, human IgG1, lambda)
heavy: B1 heavy
light: B1 light
modifications: linker-toxophore on lysine NH

IC50 (nM) A549: C4.4a: 0.1 nM
B8: Example 262 (antibody, human IgG1, lambda)
heavy: B1 heavy
light: B1 light
modifications: linker-toxophore on lysine NH

IC50 (nM) A549: C4.4a: 0.1 nM
B9: Example 261 (antibody, human IgG1, lambda)
heavy: B1 heavy
light: B1 light
modifications: linker-toxophore on lysine NH

IC50 (nM) A549: C4.4a: 0.062 nM
B11: Example 259 (antibody, human IgG1, lambda)
heavy: B1 heavy
light: B1 light
modifications: linker-toxophore on cysteine S

IC50 (nM) A549: C4.4a: 0.3 nM
B15: Example 263 (antibody, human IgG1, lambda)
heavy: B1 heavy
light: B1 light
modifications: linker-toxophore on lysine NH

IC50 (nM) A549: C4.4a: 0.036 nM
B17: Example 257 (antibody, human IgG1, lambda)
heavy: B1 heavy
light: B1 light
modifications: linker-toxophore on cysteine S
